Measurements: article PMC8497992, “Structural and functional characterization explains loss of dNTPase activity of the cancer-specific R366C/H mutant SAMHD1 proteins” (The Journal of Biological Chemistry, 2021)

Target: the molecule itself
Experiment: cross-linking; formaldehyde cross-linking of 10 uM HD domain protein with 2 mM dGTP (activator); 50 mM Hepes 7.4, 20% glycerol, 150 mM KCl, 1 mM beta-mercaptoethanol, 250 mM KCl, 25 mM MgCl2; equal amount of 2% formaldehyde, 37 °C 15 min; SDS-PAGE; monomer to tetramer

Row | Protein | stoichiometry N
1 | SAMHD1 HD domain ([…]) R366C (domain or fragment, SAMHD1, HD domain, […], with the cancer-associated mutation R366C (colon cancer and leukemia); Made by QuikChange on pet14b-SAMHD1; also called R366C/H mutants; source: E. coli Rosetta DE3, purified (HisTrap FF, Superdex 200)) not shown | 4
2 | SAMHD1 HD domain ([…]) R366H (domain or fragment, SAMHD1, HD domain, […], with the cancer-associated mutation R366H (colon cancer); Made by QuikChange on pet14b-SAMHD1; also called R366C/H mutants; source: E. coli Rosetta DE3, purified (HisTrap FF, Superdex 200)) not shown | 4
